T1: UNK ZnF1-3 (human, UniProt Q9C0B0 31-174)
T1 sequence: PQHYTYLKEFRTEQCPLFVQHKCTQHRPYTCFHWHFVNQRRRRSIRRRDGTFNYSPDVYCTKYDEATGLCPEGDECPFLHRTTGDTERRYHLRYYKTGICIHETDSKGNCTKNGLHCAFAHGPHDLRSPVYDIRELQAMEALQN

B1: 120676072_120676440_3533_CDS_ENSMUSG00000025153_ENSMUST00000055655|mouse|control|control (ssRNA)
RNA: GGGAGUUCUACAGUCCGACGAUCCAGACCCUUGCACAGUUGCAGCUCCUUCUGCAGGGCAGUGCUCUCAGACAGGCACUCAGCCUCCAUGUGCGGUGUGAAAACGAACUUUUCCAAGGUGGGGACCAGCUGUUCUUGCUGCCGCAACAGAGGAUUGAGCAUCA
B2: chr7:140404665:140404666:+_ENSG00000090266_ENST00000247866|hu_hu|hu_hu_hu_mus_False|18_78 (ssRNA)
RNA: GGGAGUUCUACAGUCCGACGAUCUGCUCCUACUCGUCCAGAGAGUUUACAGUGUCAGUCUUCAUCAUCAGGAGGGAUUCCCAGUUCUUCAUCUGUCCACUGUGAAGGAUCUGGAUACGGAAAGUGACCCAGCACAGCAUCCGACAACAGAGGAUUGAGCAUCA
B3: chr7:75932113:75932114:+_ENSG00000106211_ENST00000248553|hu_hu|hu_hu_hu_mus_False|8_98 (ssRNA)
RNA: GGGAGUUCUACAGUCCGACGAUCCUGCGACCACUCAUCCGGCAGCCGGGGCACCCCGAAAGCUUGAUCGAAGAGGCGGCUGUGUGCAGGGUACCAGUCCCGGAAUGGUUCCCAGCUCGGGCUCCGCAGCGAGAAGGAGGGCACCAACAGAGGAUUGAGCAUCA
B4: chr7:44244176:44244177:+_ENSG00000106636_ENST00000223369|hu_hu|motif|central (ssRNA)
RNA: GGGAGUUCUACAGUCCGACGAUCACUAUCAUUCCGGACGUAGACGUGGCACAGAUAGUCUUGUUCUUUGACAGAAGCUCGGGUGCCUUUCGAUGAGCGCUCCACAAUCAGUUGACUCGUGAAGGUCAUGAAUUCCUGAACGCUCAACAGAGGAUUGAGCAUCA
B5: 32953677_32953797_881_CDS_ENSG00000060749_ENST00000399302|human|control|control (ssRNA)
RNA: GGGAGUUCUACAGUCCGACGAUCCUGAAUUGACUGGGUACCUGAAGGCCGCUGAUGGUGUUUAAUAACACUACAUUCUCGAAGAAGAGCUCUUUCAAUGGAAGCAGUAGAACUAGUAAAGAGAGUUGAACUGUAGGCUUGAGGCAACAGAGGAUUGAGCAUCA
B6: chr7:135832182:135832183:+_ENSMUSG00000042105_ENSMUST00000118605|mus_hu|FALSE|FALSE (ssRNA)
RNA: GGGAGUUCUACAGUCCGACGAUCAACAAUGGUCGCAUAAAAGCCGCUGUCUUCAGGGGACAUCAACAUCAGACUUUGGAAAAGAAGUAAUUUGCAGGAAAAAUAUAACCCCACAGGAACUUUAACCAUAAGCCCUGCAAAAAGCAACAGAGGAUUGAGCAUCA
B7: chr22:32879901:32879902:+_ENSG00000100225_ENST00000397426|hu_mus|hu_hu_hu_mus_False|38_78 (ssRNA)
RNA: GGGAGUUCUACAGUCCGACGAUCCUCUUCCAUACUCAUGGCAUCCUGAAUUGACUCAGCUUCAAAAUUUUGACUAGGCCCUUCCAUACUGUCAUCAUUCCAAACACCAAAUGGGGUGGCCUGUCCUUGGGAUGAAUCAGUCCCCAACAGAGGAUUGAGCAUCA
B8: chr1:145592185:145592186:+_ENSMUSG00000018196_ENSMUST00000111957|mus_hu|FALSE|FALSE (ssRNA)
RNA: GGGAGUUCUACAGUCCGACGAUCUGCCAUUGUACAGUAAGAACAGGAUGUUUUUGAGAAAAUCACCACACAAUUAUCAGAAAUUGUUUCUUGGAUCUGGUUCACAGGCGCCGUCGCUAAAUUCUCCAAAGAUGAUGAUGUAUUCAACAGAGGAUUGAGCAUCA
B9: chr10:36853155:36853156:-_ENSMUSG00000069662_ENSMUST00000092584|mus_mus|FALSE|FALSE (ssRNA)
RNA: GGGAGUUCUACAGUCCGACGAUCUUCUUAUAAUCCAGAGUGUUCAUAACCACAGCAAAGGCCACUGCACACACUGCCAAUACAGACUUAAUAACACGAUUCUCAACUGUACAAGAGUUAUUUAUUUUCCUUAAUCUCAAAGCUCAACAGAGGAUUGAGCAUCA
B10: 82409263_82409383_1284_CDS_ENSG00000117114_ENST00000335786|human|control|control (ssRNA)
RNA: GGGAGUUCUACAGUCCGACGAUCUUGGUUAUCUCUUGGAUUGUAAUCCACUGCAGCAAUAUACUGAUACUGGUUGGGGAAGGGAACAUCUACAUAUUCUCCUCGGUUUAAUCGGGUAUUAUAAAUGUAAUCAAUUGAGUUCUUCAACAGAGGAUUGAGCAUCA
B11: 78574142_78600914_1522_CDS_ENSG00000149256_ENST00000278550|human|control|control (ssRNA)
RNA: GGGAGUUCUACAGUCCGACGAUCCUGCAGGUGCCAGUUUAGGCCAAACAGGUGCAUGGCCACAAAGUAUGCCAGCAGGAUGACCAGAGUGGCUGAGAUGACGAUGGCGCUCAGGGCUGCGCACUUCCAGUUACAGUACUUGGACAACAGAGGAUUGAGCAUCA
B12: chr1:244855233:244855234:+_ENSG00000121644_ENST00000302550|hu_mus|hu_hu_hu_mus_True|98_108 (ssRNA)
RNA: GGGAGUUCUACAGUCCGACGAUCCAUUAAAUGAUAAGCAUUGCCUUUAUACUCUUUCCCCAGUUCUUCUACAAUUUUCUCUAUAUCAUCUUCUAGAAAGUCCGUACUUCCUAGAACAACAGCUUCUUUAAAUUUAAAUGUUUCCAACAGAGGAUUGAGCAUCA
B13: chr16:18284709:18284710:-_ENSMUSG00000022718_ENSMUST00000009321|mus_mus|motif|central (ssRNA)
RNA: GGGAGUUCUACAGUCCGACGAUCAACCACUGCCUCAAUUAUUGGAAAUCACAAUGCACUCAGCUUAAAAGAUUGACGUCGGAGUGAGUCUAUCUUCAUGCCAAAGUGGCACCUUUCUUCUUCCACCUGUGGCGCCCGCGACCUCAACAGAGGAUUGAGCAUCA
B14: 12706174_12707393_3387_CDS_ENSMUSG00000031010_ENSMUST00000089302|mouse|control|control (ssRNA)
RNA: GGGAGUUCUACAGUCCGACGAUCUUGCCAAAGGAAAGAGAUGUAUCUGGGAUGAAGUGACAUUAUCACUCCAGGCAAACAACUUUCCACUUCUGGAUUGGGGCCAUCACUGUAAUGAUUACCAUGAUUUCCAGGAGAUCCAGUCAACAGAGGAUUGAGCAUCA
B15: chr1:163117127:163117128:-_ENSG00000143248_ENST00000313961|hu_mus|hu_hu_hu_mus_False|18_48 (ssRNA)
RNA: GGGAGUUCUACAGUCCGACGAUCUGCUACAAAGGAUGUAACUCAACUCACAGGGCAACUUUUGGAAGCCUGACCAGAUGACUACUUGAUUAACUCCUUAUAAAAUUCAGAGCGCACAAAGCGAGGCAGAGAAUCCUUCUCCAUCAACAGAGGAUUGAGCAUCA
B16: chr6:114281168:114281169:-_ENSG00000196591_ENST00000368632|hu_hu|hu_hu_hu_mus_True|8_78 (ssRNA)
RNA: GGGAGUUCUACAGUCCGACGAUCUUCCAUUUUUCGGUAUAAACCAUAAUUUAGCAGCAAGUUAUGGGUCAUCCGGAUUCUAUGAGGCUUCAUGGGAUGACCCUGGCCAUAAUAAUAAUUGCCAAUAUCACAGAUUCAGUAGUACAACAGAGGAUUGAGCAUCA
B17: chr7:65705844:65705845:+_ENSG00000169902_ENST00000304842|hu_mus|hu_hu_hu_mus_False|78_108 (ssRNA)
RNA: GGGAGUUCUACAGUCCGACGAUCAAAAGGAUCUUUAUUACAUAAAUAAGGUGCCGGCUCCCCAUGCUUAACAAUGACCUCCAGAAGGAAGGCUUGCAUGGCAGAAUCUAGCACUUCAUCUGUGACACCCGCCUCAUCCAAGCGCAACAGAGGAUUGAGCAUCA
B18: chr7:149068622:149068623:-_ENSMUSG00000025139_ENSMUST00000001950|mus_hu|mus_mus_mus_hu_False|1_58 (ssRNA)
RNA: GGGAGUUCUACAGUCCGACGAUCGUGAGGCCUCUGAGUGUGGCUUGUGGUCUGUCCUGGGUUAGAGUUGUUAAUAUCACUAAGUGGACCAUCUAGAACGUUCCAGUCCCGCCUGACACCUUCAUUCCCAAUGGAGAAUCUGCUCAACAGAGGAUUGAGCAUCA
B19: 86748150_86749805_1536_CDS_ENSMUSG00000035671_ENSMUST00000039480|mouse|control|control (ssRNA)
RNA: GGGAGUUCUACAGUCCGACGAUCGACACCAGUAGCACCUUUCUGGAGCAGUUCUUUUUUCUGCUGCUUGUAGCUCUCAAGCUGGUGUCGCCUCUGCAGGCGCAGGGUGUUGAUUAUGGCACACGCCAGCCGCAGAGCCUUGUGCAACAGAGGAUUGAGCAUCA
B20: chr11:50626376:50626377:-_ENSMUSG00000044807_ENSMUST00000109135|mus_hu|FALSE|FALSE (ssRNA)
RNA: GGGAGUUCUACAGUCCGACGAUCAAAUCCUUCGUUAGUACAAUGAAAGGCUAUAAUUAAACUAAAAUCUCUCCUGGCUCUAAUGAGCUACCAGACAUGCAGCCUGAGAUUCUGCCAAAUACAUCCCUUCUGCAACAGAUAACACAACAGAGGAUUGAGCAUCA
B21: 71115185_71126082_151_3pUTR_ENSMUSG00000031391_ENSMUST00000102871|mouse|control|control (ssRNA)
RNA: GGGAGUUCUACAGUCCGACGAUCAUUCCACUCACCCUCCUGCUGGUGGUUUGUUUCCAGCGGUAGCUGCUGACAGGGGCGGGGGGGGGGCGUACUGCGCCGAUCAGGUUGCCAGCUCAGUCUCUGUGCACGCCGACCUCGGACCAACAGAGGAUUGAGCAUCA
B22: 53190817_53190937_963_CDS_ENSG00000177200_ENST00000398510|human|control|control (ssRNA)
RNA: GGGAGUUCUACAGUCCGACGAUCUGAAAAGGAAUUACUUCCAGUAAAAUCAGAUAAAGUCUGAUUUGUAUGAUUAGAUGCAAGAACUGCAGAGGACUGAAGUAGACUGUUUGGUGAUAUAUGAUUACUGGAAAAGGAAUAAUGCAACAGAGGAUUGAGCAUCA

This is one part of the list.

The assay addresses T1, UNK ZnF1-3. Kind of assay: nsRBNS (natural sequence RNA bind-n-seq); RBNS binding buffer (assumed for nsRBNS): 25 mM Tris pH 7.5, 150 mM KCl, 3 mM MgCl2, 0.01% Triton X-100, 500 ug/ml BSA, 20 U/ml SUPERase-In, 4 C; UNK is unkempt and MSI1 is Musashi-1; names of the RNAs are library labels; protein concentration not given here; high values mean tight binding.
B1 came in with a binding signal of 1.18 enrichment R.

With B2, the binding signal turned out to be 1.32 enrichment R.

The molecule B3 had a binding signal of 1.76 enrichment R.

Molecule B4 registered a binding signal of 0.437 enrichment R.

B5: the binding signal worked out at 1.53 enrichment R.

Molecule B6 yielded a binding signal of 2.01 enrichment R.

In turn, B7 registered a binding signal of 1.02 enrichment R.

With B8, the binding signal stood at 0.952 enrichment R.

In the case of B9, the binding signal turned out to be 1.34 enrichment R.

The molecule B10 yielded a binding signal of 1.12 enrichment R.

Turning to B11, the binding signal stood at 1.36 enrichment R.

For B12, the binding signal was 1.14 enrichment R.

With B13, the binding signal worked out at 1.2 enrichment R.

Molecule B14 yielded a binding signal of 1.03 enrichment R.

Regarding B15, the binding signal worked out at 1.16 enrichment R.

Take B16: the binding signal was found to be 0.812 enrichment R.

The molecule B17 registered a binding signal of 0.468 enrichment R.

As to B18, the binding signal stood at 0.86 enrichment R.

The molecule B19 gave a binding signal of 0.512 enrichment R.

B20 registered a binding signal of 0.964 enrichment R.

For B21, the binding signal stood at 1.34 enrichment R.

Regarding B22, the binding signal came out at 1.92 enrichment R.

(Values after publication PMC12136788.)
